# The list shows a part of the results.
# B1: HPAIIITrx (Helix pomatia), Q1KM18 (protein)
# chain: MLFVTIISLGLLAIVHGQCALKTIAFSAAIDREQTFDANQVVIYDIVITNHGNAYDNSTGLFTAPVDGMYSFQLNLLTIKEKEGWLELVHNGQLKVSVYAKQDSTYDSSSNSVIIKMKEGDRVNVRAHKKSGLFGRDDELYNTFSGHFLSGL
# Experiments:
# Test in all cases: glycan array binding signal (z-score within array); higher = stronger binding
# Conditions in all cases: glycan notation: IUPAC condensed, linker removed
# [1] = target: Neu5Ac(a2-3)Gal(b1-4)GlcNAc(b1-3)Gal(b1-4)GlcNAc(b1-3)Gal(b1-4)GlcNAc(b1-2)Man(a1-3)[Neu5Ac(a2-3)Gal(b1-4)GlcNAc(b1-3)Gal(b1-4)GlcNAc(b1-3)Gal(b1-4)GlcNAc(b1-2)Man(a1-6)]GalNAc
# Outline: (§1)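 Glycan array data came from 3228 arrays in the Consortium for Functional Glycomics database, and only arrays with an available protein sequence were kept. Glycan names were put into IUPAC-condensed notation, and columns mapping to the same glycan were averaged. The binding signal is a within-array Z-score, averaged across arrays of one protein sequence run at different concentrations or buffers and across linkers. A negative Z-score can be read as non-binding.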
# [2] = target: Neu5Ac(a2-3)Gal(b1-4)GlcNAc(b1-3)Gal(b1-4)GlcNAc(b1-3)GalNAc
# Outline: as §1
# [3] = target: Neu5Ac(a2-3)Gal(b1-4)GlcNAc(b1-3)Gal(b1-4)GlcNAc(b1-3)[Neu5Ac(a2-3)Gal(b1-4)GlcNAc(b1-3)Gal(b1-4)GlcNAc(b1-6)]GalNAc
# Outline: as §1
# [4] = target: Neu5Ac(a2-3)Gal(b1-4)GlcNAc(b1-3)Gal(b1-4)GlcNAc(b1-6)[Gal(b1-3)]GalNAc
# Outline: as §1
# [5] = target: Neu5Ac(a2-3)Gal(b1-4)GlcNAc(b1-3)Gal(b1-4)[Fuc(a1-3)]GlcNAc
# Outline: as §1
# [6] = target: Neu5Ac(a2-3)Gal(b1-4)GlcNAc(b1-3)GalNAc
# Outline: as §1
# [7] = target: Neu5Ac(a2-3)Gal(b1-4)GlcNAc(b1-3)[Neu5Ac(a2-3)Gal(b1-4)GlcNAc(b1-6)]GalNAc
# Outline: as §1
# [8] = target: Neu5Ac(a2-3)Gal(b1-4)GlcNAc(b1-6)GalNAc
# Outline: as §1
# [9] = target: Neu5Ac(a2-3)Gal(b1-4)GlcNAc(b1-6)[Gal(b1-3)]GalNAc
# Outline: as §1
# [10] = target: Neu5Ac(a2-3)Gal(b1-4)GlcNAc(b1-6)[Neu5Ac(a2-3)Gal(b1-3)]GalNAc
# Outline: as §1
# [11] = target: Neu5Ac(a2-3)Gal(b1-4)GlcNAc6S
# Outline: as §1
# [12] = target: Neu5Ac(a2-3)Gal(b1-4)[Fuc(a1-3)]GlcNAc
# Outline: as §1
# [13] = target: Neu5Ac(a2-3)Gal(b1-4)[Fuc(a1-3)]GlcNAc(b1-2)Man
# Outline: as §1
# [14] = target: Neu5Ac(a2-3)Gal(b1-4)[Fuc(a1-3)]GlcNAc(b1-3)Gal
# Outline: as §1
# [15] = target: Neu5Ac(a2-3)Gal(b1-4)[Fuc(a1-3)]GlcNAc(b1-3)Gal(b1-4)GlcNAc
# Outline: as §1
# [16] = target: Neu5Ac(a2-3)Gal(b1-4)[Fuc(a1-3)]GlcNAc(b1-3)Gal(b1-4)[Fuc(a1-3)]GlcNAc(b1-3)Gal(b1-4)[Fuc(a1-3)]GlcNAc
# Outline: as §1
# [17] = target: Neu5Ac(a2-3)Gal(b1-4)[Fuc(a1-3)]GlcNAc(b1-3)GalNAc
# Outline: as §1
# [18] = target: Neu5Ac(a2-3)Gal(b1-4)[Fuc(a1-3)]GlcNAc(b1-6)[Gal(b1-3)]GalNAc
# Outline: as §1
# [19] = target: Neu5Ac(a2-3)Gal(b1-4)[Fuc(a1-3)]GlcNAc(b1-6)[Neu5Ac(a2-3)Gal(b1-3)]GalNAc
# Outline: as §1
# [20] = target: Neu5Ac(a2-3)Gal(b1-4)[Fuc(a1-3)]GlcNAc6S
# Outline: as §1
# [21] = target: Neu5Ac(a2-3)Gal6S(b1-4)GlcNAc
# Outline: as §1
# [22] = target: Neu5Ac(a2-3)Gal6S(b1-4)[Fuc(a1-3)]GlcNAc
# Outline: as §1
# Neu5Ac(a2-3)GalNAc = target: Neu5Ac(a2-3)GalNAc
# Outline: as §1
# [23] = target: Neu5Ac(a2-3)GalNAc(b1-4)GlcNAc
# Outline: as §1
# [24] = target: Neu5Ac(a2-3)[GalNAc(b1-4)]Gal(b1-4)Glc
# Outline: as §1
# [25] = target: Neu5Ac(a2-3)[GalNAc(b1-4)]Gal(b1-4)GlcNAc
# Outline: as §1
# [26] = target: Neu5Ac(a2-3)[GalNAc(b1-4)]Gal(b1-4)GlcNAc(b1-3)GalNAc
# Outline: as §1
# [27] = target: Neu5Ac(a2-3)[Neu5Ac(a2-6)]GalNAc
# Outline: as §1
# Neu5Ac(a2-6)Gal = target: Neu5Ac(a2-6)Gal
# Outline: as §1
# [28] = target: Neu5Ac(a2-6)Gal(b1-3)GlcNAc(b1-3)[Gal(b1-4)GlcNAc(b1-6)]Gal(b1-4)Glc
# Outline: as §1
# Neu5Ac(a2-6)Gal(b1-4)Glc = target: Neu5Ac(a2-6)Gal(b1-4)Glc
# Outline: as §1
# [29] = target: Neu5Ac(a2-6)Gal(b1-4)GlcNAc
# Outline: as §1
# [30] = target: Neu5Ac(a2-6)Gal(b1-4)GlcNAc(b1-2)Man
# Outline: as §1
# [31] = target: Neu5Ac(a2-6)Gal(b1-4)GlcNAc(b1-2)Man(a1-3)Man(b1-4)GlcNAc(b1-4)GlcNAc
# Outline: as §1
# [32] = target: Neu5Ac(a2-6)Gal(b1-4)GlcNAc(b1-2)Man(a1-3)[Gal(b1-4)GlcNAc(b1-2)Man(a1-6)]Man(b1-4)GlcNAc(b1-4)GlcNAc
# Outline: as §1
# [33] = target: Neu5Ac(a2-6)Gal(b1-4)GlcNAc(b1-2)Man(a1-3)[GlcNAc(b1-2)Man(a1-6)]Man(b1-4)GlcNAc(b1-4)GlcNAc
# Outline: as §1
# [34] = target: Neu5Ac(a2-6)Gal(b1-4)GlcNAc(b1-2)Man(a1-3)[GlcNAc(b1-2)Man(b1-4)GlcNAc(b1-2)Man(a1-6)]Man(b1-4)GlcNAc(b1-4)GlcNAc
# Outline: as §1
# [35] = target: Neu5Ac(a2-6)Gal(b1-4)GlcNAc(b1-2)Man(a1-3)[GlcNAc(b1-4)][Neu5Ac(a2-6)Gal(b1-4)GlcNAc(b1-2)Man(a1-6)]Man(b1-4)GlcNAc(b1-4)GlcNAc
# Outline: as §1
# [36] = target: Neu5Ac(a2-6)Gal(b1-4)GlcNAc(b1-2)Man(a1-3)[Man(a1-6)]Man(b1-4)GlcNAc(b1-4)GlcNAc
# Outline: as §1
# [37] = target: Neu5Ac(a2-6)Gal(b1-4)GlcNAc(b1-2)Man(a1-3)[Neu5Ac(a2-3)Gal(b1-4)GlcNAc(b1-2)Man(a1-6)]Man(b1-4)GlcNAc(b1-4)GlcNAc
# Outline: as §1
# [38] = target: Neu5Ac(a2-6)Gal(b1-4)GlcNAc(b1-2)Man(a1-3)[Neu5Ac(a2-6)Gal(b1-4)GlcNAc(b1-2)Man(a1-6)]Man(b1-4)GlcNAc(b1-4)GlcNAc
# Outline: as §1
# [39] = target: Neu5Ac(a2-6)Gal(b1-4)GlcNAc(b1-2)Man(a1-3)[Neu5Ac(a2-6)Gal(b1-4)GlcNAc(b1-2)Man(a1-6)]Man(b1-4)GlcNAc(b1-4)[Fuc(a1-6)]GlcNAc
# Outline: as §1
# [40] = target: Neu5Ac(a2-6)Gal(b1-4)GlcNAc(b1-2)Man(a1-6)Man(b1-4)GlcNAc(b1-4)GlcNAc
# Outline: as §1
# [41] = target: Neu5Ac(a2-6)Gal(b1-4)GlcNAc(b1-2)Man(a1-6)[Gal(b1-4)GlcNAc(b1-2)Man(a1-3)]Man(b1-4)GlcNAc(b1-4)GlcNAc
# Outline: as §1
# [42] = target: Neu5Ac(a2-6)Gal(b1-4)GlcNAc(b1-2)Man(a1-6)[GlcNAc(b1-2)Man(a1-3)]Man(b1-4)GlcNAc(b1-4)GlcNAc
# Outline: as §1
binder,measurement,setting,value
B1,glycan array binding signal (z-score),[1],1.93
same,glycan array binding signal (z-score),[2],-0.327
same,glycan array binding signal (z-score),[3],-0.156
same,glycan array binding signal (z-score),[4],-0.161
same,glycan array binding signal (z-score),[5],-0.291
same,glycan array binding signal (z-score),[6],-0.361
same,glycan array binding signal (z-score),[7],-0.41
same,glycan array binding signal (z-score),[8],-0.314
same,glycan array binding signal (z-score),[9],-0.463
same,glycan array binding signal (z-score),[10],-0.501
same,glycan array binding signal (z-score),[11],-0.337
same,glycan array binding signal (z-score),[12],-0.468
same,glycan array binding signal (z-score),[13],-0.22
same,glycan array binding signal (z-score),[14],-0.449
same,glycan array binding signal (z-score),[15],-0.166
same,glycan array binding signal (z-score),[16],0.089
same,glycan array binding signal (z-score),[17],-0.151
same,glycan array binding signal (z-score),[18],0.298
same,glycan array binding signal (z-score),[19],0.008
same,glycan array binding signal (z-score),[20],-0.453
same,glycan array binding signal (z-score),[21],-0.114
same,glycan array binding signal (z-score),[22],-0.366
same,glycan array binding signal (z-score),Neu5Ac(a2-3)GalNAc,-0.343
same,glycan array binding signal (z-score),[23],-0.416
same,glycan array binding signal (z-score),[24],-0.432
same,glycan array binding signal (z-score),[25],-0.457
same,glycan array binding signal (z-score),[26],0.26
same,glycan array binding signal (z-score),[27],-0.355
same,glycan array binding signal (z-score),Neu5Ac(a2-6)Gal,-0.412
same,glycan array binding signal (z-score),[28],-0.431
same,glycan array binding signal (z-score),Neu5Ac(a2-6)Gal(b1-4)Glc,-0.279
same,glycan array binding signal (z-score),[29],-0.355
same,glycan array binding signal (z-score),[30],-0.286
same,glycan array binding signal (z-score),[31],-0.231
same,glycan array binding signal (z-score),[32],-0.435
same,glycan array binding signal (z-score),[33],-0.166
same,glycan array binding signal (z-score),[34],-0.19
same,glycan array binding signal (z-score),[35],-0.402
same,glycan array binding signal (z-score),[36],-0.533
same,glycan array binding signal (z-score),[37],-0.451
same,glycan array binding signal (z-score),[38],-0.278
same,glycan array binding signal (z-score),[39],-0.292
same,glycan array binding signal (z-score),[40],-0.31
same,glycan array binding signal (z-score),[41],0.642
same,glycan array binding signal (z-score),[42],-0.492

# Source: the supplement of paper PMC8728848
